Results published in the supplement of paper PMC9446081.
The whole screen tested about 39,000 compounds, of which about 220 (0.56%) showed activity. The list shows a part of the results.

system: Escherichia coli K-12 BW25113; assay: relative growth (OD600 normalised to plate interquartile mean) (fraction); higher = less growth inhibition, active = 0.2 or less; settings: 50 µM; LB; incubation time: overnight (16-24 h)
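Also: static incubation at 37 °C against the wild-type strain, values averaged over two biological replicates.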

| SMILES | relative growth |
| --- | --- |
| C[C@H]1CN([C@@H](C)CO)C(=O)Cc2cc(NC(=O)c3ccncc3)ccc2O[C@H]1CN(C)S(C)(=O)=O | inactive: 1.01 |
| CCCCC(CC)COC(=O)C=Cc1ccc(OC)cc1 (stereo not drawn) | inactive: 0.948 |
| C[C@@H]1CCCCO[C@H](CN(C)Cc2ccncc2)[C@H](C)CN([C@H](C)CO)C(=O)c2cc(NC(=O)Nc3ccc4c(c3)OCO4)ccc2O1 | inactive: 0.998 |
| COc1ccc(S(=O)(=O)N(C)C[C@@H]2Oc3ccc(NS(=O)(=O)c4cn(C)cn4)cc3C(=O)N([C@H](C)CO)C[C@@H]2C)cc1 | inactive: 0.966 |
| Cc1noc(C)c1S(=O)(=O)Nc1ccc2c(c1)C(=O)N([C@@H](C)CO)C[C@@H](C)[C@@H](CN(C)C(=O)Nc1ccccc1)O2 | inactive: 1.01 |
| COC(=O)c1cccc(C(=O)OC)n1 | inactive: 1.02 |
| C[C@@H]1CCCCO[C@H](CN(C)S(=O)(=O)c2ccc(Cl)cc2)[C@@H](C)CN([C@@H](C)CO)C(=O)c2cc(NC(=O)Nc3ccc4c(c3)OCO4)ccc2O1 | inactive: 1.06 |
| CN1C[C@H](O)COC[C@@H]2O[C@@H](CC(=O)N3CCN(c4ccccc4)CC3)CC[C@H]21 | inactive: 1.03 |
| CCCCCCCCc1ccc(-c2ccc(C(=O)O)cc2)cc1 | inactive: 1.02 |
| C=C1c2cccc(O)c2C(=O)C2=C(O)[C@]3(O)C(O)=C(C(N)=O)C(=O)[C@@H](N(C)C)[C@@H]3[C@@H](O)[C@H]12 | inactive: 0.225 |
| CS(=O)(=O)c1ccccc1CC(=O)O | inactive: 0.999 |
| COCCNC(=O)[C@@H]1[C@@H](CO)[C@@H]2Cn3c(ccc(-c4ccccc4F)c3=O)[C@H]1N2S(C)(=O)=O | inactive: 1.01 |
| CNC(=O)C[C@@H]1C[C@@H]2CN(S(=O)(=O)c3cccnc3)C[C@@H]2O1 | inactive: 1.01 |
| COC[C@H]1CN(C(=O)c2ccccn2)N1 | inactive: 1 |
| C[C@H]1CN([C@@H](C)CO)C(=O)Cc2cc(NC(=O)Nc3ccc4c(c3)OCO4)ccc2O[C@H]1CN(C)C(=O)Nc1ccc(C(F)(F)F)cc1 | inactive: 1.01 |
| O=c1/c(=C/c2cccc(Cl)c2)c2cccc3cccc1c32 | inactive: 0.986 |
| CCCCCCC#C[Si](O[C@H](c1ccccc1)c1cn([C@H](CO)Cc2ccccc2)nn1)(C(C)C)C(C)C | inactive: 1 |
| OCC1OC(OC2(CCl)OC(CCl)C(O)C2O)C(O)C(O)C1Cl (stereo not drawn) | inactive: 1.03 |
| C[C@@H]1CN([C@H](C)CO)C(=O)c2cccc(NC(=O)Nc3cccc4ccccc34)c2O[C@@H]1CN(C)Cc1ccc(C(=O)O)cc1 | inactive: 1.01 |
| COC(=O)c1c2oc(c1C(=O)OC)C(=O)N[C@@H](Cc1ccccc1)Cn1cc(nn1)[C@@H](Cc1ccccc1)NC(=O)N[C@@H](COC(=O)NCCCCCC(=O)NO)CC2 | inactive: 1.01 |
| C[C@H](CO)N1C[C@H](C)[C@H](CN(C)S(=O)(=O)c2cn(C)cn2)Oc2ccc(NC(=O)Cc3cn(C)c4ccccc34)cc2CC1=O | inactive: 1.01 |

| SMILES | relative growth |
| --- | --- |
| C[C@@H]1CN([C@H](C)CO)C(=O)Cc2cc(NC(=O)C3CCCCC3)ccc2O[C@@H]1CN(C)C(=O)Nc1ccc(C(F)(F)F)cc1 | inactive: 0.99 |
| COc1cc2nc(N3CCN(C(=O)C4CCCO4)CC3)nc(N)c2cc1OC.Cl (stereo not drawn) | inactive: 0.895 |
| CC(C)NC(=O)Nc1ccc2c(c1)C(=O)N([C@@H](C)CO)C[C@@H](C)[C@H](CN(C)C(=O)C1CCCCC1)OCCCC[C@H](C)O2 | inactive: 0.949 |
| C[C@@H]1CCCCO[C@H](CN(C)C(=O)NC2CCCCC2)[C@@H](C)CN([C@@H](C)CO)C(=O)c2cc(NC(=O)NC3CCCCC3)ccc2O1 | inactive: 1.01 |
| COc1ccc(NC(=O)N(C)C[C@@H]2OCc3cnnn3CCCC(=O)N([C@@H](C)CO)C[C@H]2C)c(OC)c1 | inactive: 1.01 |
| Cc1ccc(S(=O)(=O)N(C)C[C@H]2Oc3ncc(Br)cc3C(=O)N([C@@H](C)CO)C[C@H]2C)cc1 | inactive: 0.998 |
| COc1ccc(NC(=O)N(C)C[C@H]2Oc3ccc(NS(=O)(=O)c4c(C)noc4C)cc3CC(=O)N([C@@H](C)CO)C[C@H]2C)cc1 | inactive: 0.967 |
| Cc1noc(C)c1NC(=O)N(C)C[C@H]1OCCCC[C@@H](C)Oc2ccc(NS(=O)(=O)c3ccccc3)cc2C(=O)N([C@@H](C)CO)C[C@H]1C | inactive: 1.01 |
| CC(C)NC(=O)N(C)C[C@H]1Oc2ccc(NS(=O)(=O)c3cccs3)cc2CC(=O)N([C@H](C)CO)C[C@@H]1C | inactive: 0.991 |
| CC(C)(C)NC(=O)C1CN(Cc2cccnc2)CCN1CC(O)CC(Cc1ccccc1)C(=O)NC1c2ccccc2CC1O (stereo not drawn) | inactive: 0.915 |
| O=C(C[C@@H]1CC[C@@H]2[C@H](COC[C@H](O)CN2C(=O)Nc2ccc(C(F)(F)F)cc2)O1)NCc1ccncn1 | inactive: 0.977 |
| COc1cccc(S(=O)(=O)N2C[C@@H](O)COC[C@@H]3O[C@H](CC(=O)N4CCOCC4)CC[C@H]32)c1 | inactive: 1.02 |
| N[C@@H](CSCC(=O)O)C(=O)O | inactive: 0.983 |
| C[C@@H]1CN([C@@H](C)CO)C(=O)c2cccc(NC(=O)NC3CCCCC3)c2O[C@H]1CN(C)S(=O)(=O)c1cn(C)cn1 | inactive: 1.01 |
| CC(C(=O)O)c1cccc(C(=O)c2ccccc2)c1 (stereo not drawn) | inactive: 1.01 |
| COc1nc(N)nc2nc[nH]c12 | inactive: 0.993 |
| CC(C)NC(=O)Nc1ccc2c(c1)C(=O)N([C@@H](C)CO)C[C@H](C)[C@H](CN(C)S(=O)(=O)c1cn(C)cn1)O2 | inactive: 1.01 |
| C[C@H](CO)N1C[C@H](C)[C@@H](CN(C)S(=O)(=O)c2ccc(Cl)cc2)Oc2ccc(NC(=O)Cn3cnnn3)cc2CC1=O | inactive: 1.01 |
| COc1ccccc1C#Cc1cnc2c(c1)C(=O)N([C@@H](C)CO)C[C@@H](C)[C@@H](CN(C)C(=O)c1ccc3c(c1)OCO3)O2 | inactive: 1.03 |
| Cc1ccc(S(=O)(=O)N(C)C[C@@H]2OCCCC[C@@H](C)Oc3ccc(NS(=O)(=O)c4ccc(F)cc4)cc3C(=O)N([C@@H](C)CO)C[C@H]2C)cc1 | inactive: 1.02 |
| C[C@@H]1CN([C@@H](C)CO)C(=O)c2cc(-c3ccc(C(=O)N(C)C)cc3)cnc2O[C@@H]1CN(C)C(=O)c1cccnc1 | inactive: 0.998 |

| SMILES | relative growth |
| --- | --- |
| Cc1noc(C)c1NC(=O)N(C)C[C@H]1Oc2ccc(NC(=O)C3CC3)cc2CC(=O)N([C@H](C)CO)C[C@@H]1C | inactive: 0.993 |
| CC(=O)O[C@@H]1[C@@H]2C[C@@H]([C@H]1OC(C)=O)[C@@H]1C(=O)N(C)C(=O)[C@@H]21 | inactive: 0.936 |
| COc1ccc(NC(=O)Nc2ccc3c(c2)[C@@H]2C[C@H](CC(=O)N4CCN(C)CC4)O[C@@H](CO)[C@@H]2O3)cc1 | inactive: 1 |
| C[C@H](CO)N1C[C@H](C)[C@H](CN(C)Cc2ccc(Oc3ccccc3)cc2)Oc2ccc(NC(=O)Nc3cccc4ccccc34)cc2CC1=O | inactive: 1.02 |
| CCS(=O)(=O)N1CC[C@]2(CC1)CN([C@H](CO)c1c2c2ccc(cc2n1C)OC)S(=O)(=O)c1ccccc1 | inactive: 0.996 |
| C[C@H]1CN([C@@H](C)CO)C(=O)CCCn2cc(nn2)CO[C@H]1CN(C)C(=O)C1CC1 | inactive: 1.02 |
| O=C(CO)N1C[C@H]2C[C@@H]1C[C@@H]2Oc1cccnc1 | inactive: 1.04 |
| COc1cccc(S(=O)(=O)N2C[C@H](O)COC[C@@H]3O[C@@H](CC(=O)N4CCOCC4)CC[C@H]32)c1 | inactive: 0.982 |
| O=C(C[C@H]1C[C@@H]2c3cc(NS(=O)(=O)c4ccc(F)cc4)ccc3O[C@@H]2[C@H](CO)O1)NCCc1ccccc1 | inactive: 1.02 |
| C[C@@H]1CN([C@@H](C)CO)C(=O)c2cccc(NC(=O)c3ccc(-c4nccs4)cc3)c2O[C@H]1CN(C)C(=O)Nc1ccc2c(c1)OCO2 | inactive: 0.99 |
| CCN(CCCCOC(=O)c1ccc(OC)c(OC)c1)C(C)Cc1ccc(OC)cc1.Cl (stereo not drawn) | inactive: 0.95 |
| COC(=O)c1sc2ncn(N)c(=O)c2c1C | inactive: 0.999 |
| O=C(C[C@H]1C[C@H]2c3cc(NS(=O)(=O)c4ccccc4)ccc3O[C@H]2[C@H](CO)O1)NC1CCCCC1 | inactive: 0.976 |
| COc1ccc(S(=O)(=O)Nc2ccc3c(c2)CC(=O)N([C@H](C)CO)C[C@@H](C)[C@@H](CN(C)Cc2ccncc2)O3)cc1 | inactive: 0.992 |
| C[C@@H]1CN([C@H](C)CO)C(=O)c2cc(NC(=O)CCC(F)(F)F)ccc2O[C@@H]1CN(C)C(=O)Nc1cccc2ccccc12 | inactive: 0.985 |
| C=CCCC(=O)N(C)[C@H](C)[C@H](OC(=O)[C@@H]1[C@@H]2C=C[C@]3(O2)[C@H](C(=O)N(CC=C)Cc2ccccc2)N(Cc2ccc(OC)cc2)C(=O)[C@@H]13)c1ccccc1 | inactive: 1.03 |
| Cc1cc(C(=O)Nc2cccc3c2O[C@@H](CN(C)C(=O)Nc2ccc4c(c2)OCO4)[C@@H](C)CN([C@@H](C)CO)C3=O)n(C)n1 | inactive: 0.987 |
| CO[C@H](CCO)[C@H](O)c1ccc(O)c(F)c1 | inactive: 0.93 |
| Cc1noc(C)c1NC(=O)Nc1cccc2c1O[C@@H](CN(C)Cc1ccc(Oc3ccccc3)cc1)[C@@H](C)CN([C@@H](C)CO)C2=O | inactive: 0.982 |
| C[C@H]1CN([C@@H](C)CO)S(=O)(=O)c2ccc(C#Cc3ccc(F)cc3)cc2O[C@@H]1CN(C)S(C)(=O)=O | inactive: 1.02 |
| COc1ccc(S(=O)(=O)Nc2ccc3c(c2)C(=O)N([C@@H](C)CO)C[C@H](C)[C@@H](CN(C)Cc2ccc(Cl)c(Cl)c2)O3)cc1 | inactive: 0.97 |
